In the supplement of paper PMC7238544:
Structures can show the parent of a compound that is named as a salt. ± gives the standard deviation of the averaged measurements. The list shows a part of the results.

How the values were obtained:
Details in all cases: priming compound concentration 100 µM
hAMSC donor 1 [1] = assay: Hoechst total cell count ratio vs vehicle control; higher = more cells (less toxicity)
hAMSC donor 2 [2] = assay: as above
hAMSC donor 1 [3] = assay: transgenic luciferase activity (RLU/mg protein) fold change vs vehicle control (ratio); higher = more transgene expression
hAMSC donor 2 [4] = assay: as above
hAMSC donor 1 [5] = assay: transfection efficiency (EGFP+ cells / Hoechst count) fold change vs vehicle control (ratio); hAMSC are human adipose-derived mesenchymal stem cells given an EGFP-luciferase plasmid by lipofection; higher = enhanced transfection
hAMSC donor 2 [6] = assay: as above
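Wherever Hoechst total cell count ratio vs vehicle control is given: compound added 30 min before Lipofectamine 3000 lipoplex delivery, triplicate-well means expressed against DMSO vehicle control wells of the same 96-well plate.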
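Wherever transfection efficiency (EGFP+ cells / Hoechst count) fold change vs vehicle control is given: compounds added 30 min before Lipofectamine 3000 lipoplex transfection, triplicate means relative to DMSO vehicle wells on the same plate, luciferase RLU normalized to BCA total protein.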
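Wherever transgenic luciferase activity (RLU/mg protein) fold change vs vehicle control is given: compounds in DMSO added 30 min before Lipofectamine 3000 transfection of pEGFP-Luc in 96-well plates, values are means of triplicate wells over DMSO vehicle wells on the same plate.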

SMILES | Hoechst total cell count ratio (hAMSC donor 1 [1]) | Hoechst total cell count ratio (hAMSC donor 2 [2]) | transgenic luciferase activity (hAMSC donor 1 [3]) | transgenic luciferase activity (hAMSC donor 2 [4]) | transfection efficiency (hAMSC donor 1 [5]) | transfection efficiency (hAMSC donor 2 [6])
NC(=O)c1cccnc1 [Nicotinamide] | 1.11 ± 0.12 | 1.31 ± 0.15 | 0.464 ± 0.3 | 0.845 ± 0.13 | 1.19 ± 0.089 | 0.9 ± 0.094
CN1CCN(c2nc3cc(C(F)(F)F)ccc3n3cccc23)CC1 | 0.477 ± 0.083 | 0.244 ± 0.04 | 0.229 ± 0.044 | 0.0241 ± 0.014 | 1.13 ± 0.68 | 0.7 ± 0.17
OC(Cn1cncn1)(Cn1cncn1)c1ccc(F)cc1F [Fluconazole] | 0.865 ± 0.013 | 1.02 ± 0.19 | 1.24 ± 0.77 | 0.594 ± 0.027 | 1.02 ± 0.23 | 0.784 ± 0.21
C#C[C@]1(O)CC[C@H]2[C@@H]3CCC4=CC(=O)CC[C@@H]4[C@H]3CC[C@@]21C [19-Norethindrone] | 1.14 ± 0.073 | 1.01 ± 0.43 | 0.207 ± 0.18 | 0.694 ± 0.1 | 1.19 ± 0.18 | 1.6 ± 0.097
NS(=O)(=O)c1cc2c(cc1Cl)NCNS2(=O)=O [Hydrochlorothiazide] | 1.2 ± 0.22 | 1.42 ± 0.35 | 0.498 ± 0.38 | 1.21 ± 0.18 | 0.836 ± 0.41 | 0.957 ± 0.068
C[C@]12CCC(=O)C=C1CC[C@@H]1[C@@H]2[C@@H](O)C[C@@]2(C)[C@H]1CC[C@]2(O)C(=O)CO [Hydrocortisone] | 1.51 ± 0.021 | 1.56 ± 0.057 | 12.1 ± 3.9 | 3.1 ± 0.18 | 1.62 ± 0.7 | 1.45 ± 0.096
C=CC1=C(C(=O)O)N2C(=O)[C@@H](NC(=O)/C(=N\OCC(=O)O)c3csc(N)n3)[C@H]2SC1 [Cefixime trihydrate] | 1.26 ± 0.2 | 0.677 ± 0.18 | 0.146 ± 0.14 | 0.3 ± 0.029 | 0.229 ± 0.024 | 0.711 ± 0.2
C=C[C@H]1CN2CC[C@H]1C[C@@H]2[C@@H](O)c1ccnc2ccc(OC)cc12 [Quinidine] | 1.29 ± 0.17 | 1.41 ± 0.27 | 0.348 ± 0.27 | 0.726 ± 0.23 | 1.13 ± 0.28 | 0.74 ± 0.14
O=C(CCCN1CCC(O)(c2ccc(Cl)cc2)CC1)c1ccc(F)cc1 [Haloperidol hydrochloride] | 1.24 ± 0.076 | 0.929 ± 0.072 | 2.6 ± 1.1 | 0.711 ± 0.17 | 1.97 ± 0.36 | 0.667 ± 0.042
COC(=O)Nc1nc2cc(C(=O)c3ccc(F)cc3)ccc2[nH]1 [Flubendazole] | 0.878 ± 0.14 | 0.788 ± 0.012 | 0.789 ± 0.68 | 0.526 ± 0.35 | 1.28 ± 0.097 | 0.673 ± 0.16
Cc1ccc(S(=O)(=O)NC(=O)NN2CCCCCC2)cc1 [Tolazamide] | 1.58 ± 0.15 | 1.14 ± 0.076 | 0.791 ± 0.22 | 1.19 ± 0.26 | 1.2 ± 0.17 | 1.05 ± 0.19
c1ccc2c(CC3=NCCN3)cccc2c1 [Naphazoline hydrochloride] | 1.29 ± 0.093 | 1.42 ± 0.18 | 2.16 ± 1.9 | 0.639 ± 0.11 | 0.721 ± 0.1 | 0.724 ± 0.11
O=C(O)c1cccnc1 [Nicotinic acid] | 1.18 ± 0.07 | 1.23 ± 0.091 | 0.808 ± 0.43 | 1.42 ± 0.48 | 0.884 ± 0.19 | 1.59 ± 0.28
CN1CCC(=C2c3ccccc3C=Cc3ccccc32)CC1 [Cyproheptadine hydrochloride] | 0.678 ± 0.11 | 0.254 ± 0.063 | 1.05 ± 0.11 | 0.161 ± 0.012 | 1.86 ± 0.48 | 0.845 ± 0.42
COC(=O)C1=C(C)NC(C)=C(C(=O)OCC(C)C)C1c1ccccc1[N+](=O)[O-] (stereo not given) [Nisoldipine] | 1.38 ± 0.25 | 0.705 ± 0.088 | 0.823 ± 0.36 | 0.858 ± 0.31 | 0.74 ± 0.17 | 0.757 ± 0.22
CCCc1cc(=O)[nH]c(=S)[nH]1 [Propylthiouracil] | 0.946 ± 0.06 | 1.17 ± 0.085 | 0.789 ± 0.96 | 0.337 ± 0.061 | 0.97 ± 0.12 | 1.13 ± 0.1
COc1cc2nc(N3CCN(C(=O)c4ccco4)CC3)nc(N)c2cc1OC [Prazosin hydrochloride hydrate] | 0.538 ± 0.054 | 0.289 ± 0.026 | 0.293 ± 0.12 | 0.631 ± 0.38 | 0.873 ± 0.17 | 1.08 ± 0.26
Nc1ccn([C@@H]2O[C@H](CO)[C@@H](O)[C@@H]2O)c(=O)n1 [Cytarabine] | 1.03 ± 0.076 | 1.37 ± 0.37 | 1.02 ± 0.39 | 0.72 ± 0.28 | 1.55 ± 0.68 | 0.833 ± 0.27
Cc1onc(-c2ccccc2)c1C(=O)N[C@@H]1C(=O)N2[C@@H]1SC(C)(C)[C@@H]2C(=O)O [Oxacillin sodium] | 0.962 ± 0.083 | 1.38 ± 0.14 | 1.82 ± 1.1 | 1.24 ± 0.28 | 1.27 ± 0.32 | 0.987 ± 0.12
NC12CC3CC(CC(C3)C1)C2 [Symmetrel] | 1.42 ± 0.1 | 1.26 ± 0.4 | 0.694 ± 0.42 | 0.463 ± 0.17 | 0.787 ± 0.15 | 1.23 ± 0.12
CCN1CCC[C@H]1CNC(=O)c1cc(S(N)(=O)=O)ccc1OC [Levosulpiride] | 1.08 ± 0.067 | 0.859 ± 0.022 | 1.82 ± 0.58 | 2.1 ± 0.23 | 0.677 ± 0.17 | 1.75 ± 0.34
CCN1CCN(c2cc3c(cc2F)c(=O)c(C(=O)O)cn3C2CC2)CC1 [Enrofloxacin] | 0.89 ± 0.011 | 1.19 ± 0.12 | 0.855 ± 0.94 | 0.885 ± 0.25 | 1.08 ± 0.33 | 0.96 ± 0.098
NS(=O)(=O)Cc1noc2ccccc12 [Zonisamide] | 1.11 ± 0.035 | 1.11 ± 0.3 | 1.18 ± 0.06 | 0.904 ± 0.42 | 1.84 ± 0.32 | 1.17 ± 0.072
COc1ccc(-c2oc3c(CC=C(C)C)c(O[C@@H]4O[C@H](CO)[C@@H](O)[C@H](O)[C@H]4O)cc(O)c3c(=O)c2O[C@@H]2O[C@@H](C)[C@H](O)[C@@H](O)[C@H]2O)cc1 [Icariin] | 1.48 ± 0.15 | 0.96 ± 0.55 | 0.64 ± 0.34 | 1.31 ± 0.1 | 0.792 ± 0.29 | 1.45 ± 0.39
O=C(N[C@H](CO)[C@H](O)c1ccc([N+](=O)[O-])cc1)C(Cl)Cl [Chloramphenicol] | 1.03 ± 0.031 | 1.2 ± 0.2 | 12.2 ± 2.6 | 2.88 ± 0.6 | 2.1 ± 0.15 | 1.64 ± 0.38
